{"source": "ChEMBL document CHEMBL1201862", "about": "“PubChem BioAssay data set” (2004)", "note": "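Grown in 96-well plates, cells were treated for 48 hours with each compound at five concentrations. Insufficient inhibition: endpoint recorded as highest concentration tested. GI50 marks 50% less growth.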 Active and inactive are the calls of the source. No stated cut-off is given here; in the data, active = GI50 up to about 1.1 µM and inactive = higher."}
{"test_system": "NCI-H322M", "experiment": "NCI tumour cell line growth inhibition, 48 h"}
{"smiles": "O=[N+]([O-])c1cc(Cc2cc([N+](=O)[O-])c3cccnc3c2O)c(O)c2ncccc12", "GI50": "inactive: 8.3 µM"}
{"smiles": "NS(=O)(=O)c1cc(C(=O)O)c(Cl)c([N+](=O)[O-])c1Cl", "GI50": "inactive: > 100 µM"}
{"smiles": "O=c1c2ccccc2n2c(S)nnc2n1-c1ccccc1", "GI50": "inactive: > 100 µM"}
{"smiles": "Cc1c[nH]c2c1C13CC1CN(C(=O)c1cc4cc(NC(=O)c5cc6ccccc6o5)ccc4[nH]1)C3=CC2=O", "note": "(centres undefined)", "GI50": "active: < 0.001 µM"}
{"smiles": "CC1(C)SC2C(C(=O)O)N=C(Cc3ccccc3)N2C1C(=O)O", "note": "(centres undefined)", "GI50": "inactive: 15.3 µM"}
{"smiles": "O=C(Cc1ccccc1)Nn1c(-c2ccccc2)nc2ccccc2c1=O", "GI50": "inactive: > 100 µM"}
{"smiles": "COC(=O)c1ccccc1OCc1cc(=O)oc2ccc(C)cc12", "GI50": "inactive: > 100 µM"}
{"smiles": "CN(O)C(=O)c1ccc(OCc2cccc(Cl)c2)cc1", "GI50": "inactive: 21.1 µM"}
{"smiles": "CCCCCCCCCCCCCC(=O)NCC(OCC)OCC", "GI50": "inactive: > 100 µM"}
{"smiles": "CCOC(=O)C1=C(C)N(NC(N)=O)C2(N)N(NC(N)=O)C(C)=C(C(=O)OCC)C12C#N", "note": "(centres undefined)", "GI50": "inactive: > 100 µM"}
{"smiles": "O=C(NC(=S)Nc1ccc2c(c1)Sc1ccccc1O2)c1ccc([N+](=O)[O-])cc1", "GI50": "inactive: > 100 µM"}
{"smiles": "CCCCCCCCCCCCCCCCCCNc1nc(=O)n(C2CC(O)C(COP(=O)(O)OCC3OC(n4ccc(N)nc4=O)C(O)C3O)O2)cc1F", "note": "(centres undefined)", "GI50": "inactive: 32.4 µM"}
{"smiles": "CCOc1c2ccsc2c(OCC)c2ccsc12", "GI50": "inactive: 4.99 µM"}
{"smiles": "COc1ccc(Sc2ccccc2N)cc1", "GI50": "inactive: 50.4 µM"}
{"smiles": "O=C(O)C1OC(Oc2cc(O)c3c(=O)cc(-c4ccc(O)cc4)oc3c2)C(O)C(O)C1O", "note": "(centres undefined)", "GI50": "inactive: > 100 µM"}
{"smiles": "CC(=O)N1C(Nc2ccccc2)CCN1c1ccccc1", "note": "(centres undefined)", "GI50": "inactive: > 10 µM"}
{"smiles": "CC1/C=C/C=C/CC/C=C/C=C/C=C/C=C/C(OC2OC(C)C(O)C(N)C2O)CC2OC(CC(O)C(O)CCC(O)CC(O)CC(O)CC(=O)OC(C)C(C)C1O)CC(O)C2C(=O)O", "note": "(centres undefined)", "GI50": "inactive: 16.4 µM"}
{"smiles": "O=C(Nc1ccccc1)OC1OC(COC(=O)c2ccccc2)C(OC(=O)c2ccccc2)C1OS(=O)(=O)c1ccc([N+](=O)[O-])cc1", "note": "(centres undefined)", "GI50": "inactive: 93.5 µM"}
{"smiles": "CCc1nc2c(n1CC)C(=O)c1ccccc1C2=O", "GI50": "inactive: 41.8 µM"}
{"smiles": "O=C1C(Cl)=C(OCCCCl)C(=O)c2c(O)ccc(O)c21", "GI50": "inactive: 1.72 µM"}
{"smiles": "O=C1CC(O)C=C1Nc1ccc(Cl)cc1", "note": "(centres undefined)", "GI50": "inactive: 62.7 µM"}
{"smiles": "CCOP(=O)(OCC)c1ccc(=O)[nH]c1-c1cccs1", "GI50": "inactive: > 100 µM"}
{"smiles": "O=[N+]([O-])c1ccc(OP(=O)(O)OCC2OC(CP(=O)(O)O)C(O)C2O)cc1", "note": "(centres undefined)", "GI50": "inactive: > 100 µM"}
{"smiles": "CCN(CC)CCN(C)CC(C)(C)C(=O)/C=C/c1ccccc1", "GI50": "inactive: 13.4 µM"}
{"smiles": "Cc1ccc(C(=O)N/N=C(\\N=N\\c2ccccc2C(=O)O)c2ccc(N(C)C)cc2)cc1", "GI50": "inactive: 51.6 µM"}
{"smiles": "Nc1ccc(C(=O)N/C(=C\\c2ccc3c(c2)OCO3)c2nc3c(O)nc(S)nc3[nH]2)cc1", "GI50": "inactive: > 100 µM"}
{"smiles": "CCN1C(Cl)=NS(=O)(=O)c2ccccc21", "GI50": "inactive: > 100 µM"}
{"smiles": "COc1cc(OCc2nc3ccccc3n3cccc23)cc(OC)c1OC", "GI50": "inactive: 42.1 µM"}
{"smiles": "C=C(C)CC1=C(OCC)C(OC)(OCC)C1=O", "note": "(centres undefined)", "GI50": "inactive: > 100 µM"}
{"smiles": "Cc1ncc([N+](=O)[O-])n1CCNS(=O)(=O)CCCn1ncnc1[N+](=O)[O-]", "GI50": "inactive: > 100 µM"}
{"smiles": "O=C1O[C@@H](c2ccccc2)C[C@H]1CN1CCOCC1", "GI50": "inactive: > 100 µM"}
{"smiles": "CCOC(=O)C1=C(C)C2C3C(=O)NC(=O)C3C1(C)C1C(=O)NC(=O)C21", "note": "(centres undefined)", "GI50": "inactive: > 100 µM"}
{"smiles": "CCc1ccccc1NC(=O)C(=O)CC(=O)c1sc(Nc2ccccc2Cl)nc1C", "GI50": "inactive: 39.8 µM"}
{"smiles": "c1ccc(SC(Sc2ccccc2)=C2CCC2)cc1", "GI50": "inactive: > 100 µM"}
{"smiles": "CC1CNC(c2ccc(-c3nc(-c4ccc(C5=NC(C)CN5)cc4)nc(N(C)C)n3)cc2)=N1", "note": "(centres undefined)", "GI50": "inactive: 1.29 µM"}
{"smiles": "CCN1CC2(C)CCC(OC)C34C5CC6CCC(O)(C5C(=O)O6)C(C(O)C23)C14", "note": "(centres undefined)", "GI50": "inactive: > 100 µM"}
{"smiles": "C=C(CO)[C@H]1CC/C(C)=C/CC/C(C)=C/C/C=C(\\C)[C@H](O)C1", "GI50": "inactive: > 100 µM"}
{"smiles": "COC(=O)C(C#CCCCCC#CC(NC(=O)OCc1ccccc1)(C(=O)OC)C(F)(F)F)(NC(=O)OCc1ccccc1)C(F)(F)F", "note": "(centres undefined)", "GI50": "inactive: > 100 µM"}
{"smiles": "COc1c(C)c2c(c3c1c(=O)c1ccccc1n3C)C=CC(C)(C)O2", "GI50": "inactive: 25.2 µM"}
{"smiles": "C/C=C1\\C(=O)OC2CCN3CCC(COC(=O)C(C)(O)C(C)C1O)C23", "note": "(centres undefined)", "GI50": "inactive: > 100 µM"}
{"smiles": "CCCCCCCCCCCCCCCCCCNc1ccn(C2OC(COP(=O)(O)OC3CC(n4cc(F)c(=O)[nH]c4=O)OC3COP(=O)(O)OCC3OC(n4ccc(N)nc4=O)C(O)C3O)C(O)C2O)c(=O)n1", "note": "(centres undefined)", "GI50": "inactive: 37.2 µM"}
{"smiles": "CNNC1=NS(=O)(=O)c2cc(C(=O)OC)c(Cl)cc2S1", "GI50": "inactive: > 10 µM"}
{"smiles": "COC1=C(Cl)C(=O)c2c(O)ccc(O)c2C1=O", "GI50": "inactive: 3.31 µM"}
{"smiles": "O=[N+]([O-])c1ccc2[nH]nc(OCc3ccccc3Cl)c2c1", "GI50": "inactive: 43 µM"}
{"smiles": "COc1ccc(CCNC(=O)[C@H]2CCCC[C@@H]2CCO)cc1OC", "GI50": "inactive: > 100 µM"}
{"smiles": "COc1ccc(CCNCc2cccc(OC)c2OC)cc1OC", "GI50": "inactive: > 100 µM"}
{"smiles": "Cc1ccc(C)c(NC(=O)C(=O)Nn2c(S)nc3ccccc3c2=O)c1", "GI50": "inactive: > 100 µM"}
{"smiles": "CN(C)C(=O)c1ccc([N+](=O)[O-])cc1", "GI50": "inactive: > 100 µM"}
{"smiles": "O=c1[nH]nc(-c2ccccc2)n1/N=C/c1cccc([N+](=O)[O-])c1", "GI50": "inactive: > 100 µM"}
{"smiles": "CC(C)(Cl)C(Br)CCC(C)(Cl)C(Br)CBr", "note": "(centres undefined)", "GI50": "inactive: 40.6 µM"}
{"smiles": "COc1ccc(C2CC(c3ccc4ccccc4c3O)=NN2)cc1OC", "note": "(centres undefined)", "GI50": "inactive: 56.1 µM"}
{"smiles": "COc1cc2c(Cc3cc(OCc4ccccc4)ccc3N)nccc2c(OC)c1OC", "GI50": "inactive: > 10 µM"}
{"smiles": "CCCCCCCC(=O)OC[n+]1cccc(-c2c(COC(=O)NC(C)C)c(COC(=O)NC(C)C)c3n2CCC3)c1", "GI50": "inactive: > 100 µM"}
{"smiles": "O=C(N/C(=C\\c1ccc(Oc2ccc(Cl)c(Cl)c2)cc1)c1nc2ccccc2[nH]1)c1ccccc1", "GI50": "inactive: 20.2 µM"}
{"smiles": "COC(=O)C1C(O)C(C)C(O)OC1C(C)C(O)C(C)/C=C\\C=C(/C)C(=O)Nc1c(C)c(OC(C)=O)c2c(c1O)C(=O)C(C)=C1OCOC(/C(C)=C/C(C)=O)=C12", "note": "(centres undefined)", "GI50": "inactive: 13 µM"}
{"smiles": "COc1ccc2ccc([Se]c3ccc4ccc(OC)cc4c3)cc2c1", "GI50": "inactive: > 100 µM"}
{"smiles": "COc1cc2c(oc(=O)c3c4occc4cc(OC)c23)c2cccc(O)c12", "GI50": "inactive: > 100 µM"}
{"smiles": "Cc1ccccc1NC(=O)/C(C#N)=N\\Nc1[nH]cnc1C(N)=O", "GI50": "inactive: 79.3 µM"}
{"smiles": "NCCCN1CCN(CCCNc2ccc3nnn4c5ccccc5c(=O)c2c34)CC1", "GI50": "inactive: 17.5 µM"}
{"smiles": "CCOc1ccc(OCC(=O)O)c2c1CCCC2=O", "GI50": "inactive: > 100 µM"}
{"smiles": "N#CC(c1ccc(Cl)cc1)c1cccc(C(C#N)c2ccc(Cl)cc2)n1", "note": "(centres undefined)", "GI50": "inactive: 51.2 µM"}
{"smiles": "COc1cc(C2c3[nH]c4ccccc4c3[C@@H](Nc3ccc(C#N)cc3)[C@H]3COC(=O)N23)cc(OC)c1O", "note": "(some centres undefined)", "GI50": "inactive: 1.22 µM"}
{"smiles": "CC1C[C@H](OC(N)=O)C(C)CC1=O", "note": "(some centres undefined)", "GI50": "inactive: > 100 µM"}
{"smiles": "C=C(C)[C@@H]1CC[C@]2(C(=O)O)CC[C@]3(C)[C@H](CC[C@@H]4[C@@]5(C)CC(=O)C(C)(C)[C@@H]5CC[C@]43C)[C@@H]12", "GI50": "inactive: 8.47 µM"}
